The BET-seq Pho4 binding data (Le et al. 2018)
The other results are listed elsewhere or left out. The energies were worked out here from pooled read counts, against the library average; single values are noisy.

Molecular target: T1, Pho4 (S. cerevisiae) (UniProt P07270)
T1 sequence: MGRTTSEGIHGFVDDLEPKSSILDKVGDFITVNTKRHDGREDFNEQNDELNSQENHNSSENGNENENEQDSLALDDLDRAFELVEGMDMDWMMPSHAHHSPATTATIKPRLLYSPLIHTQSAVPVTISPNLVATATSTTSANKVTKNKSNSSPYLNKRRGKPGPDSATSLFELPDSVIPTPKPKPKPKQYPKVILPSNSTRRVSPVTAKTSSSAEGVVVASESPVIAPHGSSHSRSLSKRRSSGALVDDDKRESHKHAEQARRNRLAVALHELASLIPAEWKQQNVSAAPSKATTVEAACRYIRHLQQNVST
Assay: relative binding free energy (BET-seq); higher = weaker binding
Conditions: reference: library average

Row | Sequence | relative binding free energy
1 | TGTCCCACGTGTTAGG | -0.03 kcal/mol
2 | AAGTTCACGTGGATTA | 0.19 kcal/mol
3 | TTGTACACGTGGCTGT | -0.03 kcal/mol
4 | CGGGCCACGTGGGGAT | -0.13 kcal/mol
5 | GGGGGCACGTGCGGCA | -0.28 kcal/mol
6 | AGGAACACGTGGGTAG | -0.06 kcal/mol
7 | TGGCGCACGTGTGAGT | -0.04 kcal/mol
8 | TTTGACACGTGGGCAG | -0.18 kcal/mol
9 | TCGATCACGTGGTGTA | 0.01 kcal/mol
10 | TAAGTCACGTGGGTAA | 0.1 kcal/mol
11 | GTTAGCACGTGTGATG | 0.07 kcal/mol
12 | GAGTGCACGTGGGTGC | -0.19 kcal/mol
13 | AAGTGCACGTGTTGCT | -0.02 kcal/mol
14 | GTGGCCACGTGAGTGT | 0.15 kcal/mol
15 | GGACACACGTGATGGT | 0.29 kcal/mol
16 | GGGCACACGTGGGTAT | -0.08 kcal/mol
17 | AGGGGCACGTGGATCT | -0.1 kcal/mol
18 | TTTCGCACGTGGGCTG | -0.34 kcal/mol
19 | GGTACCACGTGTGAGT | -0.04 kcal/mol
20 | ATGGCCACGTGTTGGA | -0.09 kcal/mol
21 | CGTGGCACGTGGATAT | -0.18 kcal/mol
22 | TTGTTCACGTGTATTA | 0.23 kcal/mol
23 | GGCGTCACGTGGTGGA | 0.13 kcal/mol

Row | Sequence | relative binding free energy
24 | TAGATCACGTGGATAT | 0.2 kcal/mol
25 | TAGGACACGTGGTTGG | -0.03 kcal/mol
26 | TAGTCCACGTGTGAAG | 0.15 kcal/mol
27 | TTGGGCACGTGGAAGA | -0.07 kcal/mol
28 | GGCTACACGTGAGTAG | 0.29 kcal/mol
29 | TAGCTCACGTGTTGTA | 0.31 kcal/mol
30 | GTGAACACGTGAGGAT | 0.34 kcal/mol
31 | TGTTGCACGTGCCGGT | -0.16 kcal/mol
32 | ATCTTCACGTGGGTTT | 0.24 kcal/mol
33 | TTTGTCACGTGTGGTG | 0.24 kcal/mol
34 | GTGTTCACGTGATGTC | 0.31 kcal/mol
35 | TTTACCACGTGTGTTG | 0.05 kcal/mol
36 | TGAATCACGTGGCGTA | 0.09 kcal/mol
37 | AGGTTCACGTGATTGT | 0.43 kcal/mol
38 | ATGTACACGTGCGTGG | 0.07 kcal/mol
39 | AGATACACGTGGGTCG | -0.1 kcal/mol
40 | TGCTTCACGTGGAGCG | 0.25 kcal/mol
41 | GGTAGCACGTGTGGCG | 0.04 kcal/mol
42 | GTACTCACGTGGATTG | 0.35 kcal/mol
43 | CGTATCACGTGATGGG | 0.23 kcal/mol
44 | ATGGGCACGTGCAGTG | -0.14 kcal/mol
45 | TTATACACGTGGGGTT | -0.18 kcal/mol
46 | AGTGCCACGTGTAGGA | -0.09 kcal/mol

Row | Sequence | relative binding free energy
47 | TTTTTCACGTGTCAAG | 0.35 kcal/mol
48 | TCGTTCACGTGAGAGG | 0.47 kcal/mol
49 | TATCACACGTGTAGGG | 0.16 kcal/mol
50 | TGCTTCACGTGGTAGC | 0.26 kcal/mol
51 | GGGCTCACGTGATTTT | 0.45 kcal/mol
52 | GTGTGCACGTGGCCGT | -0.06 kcal/mol
53 | AGGGACACGTGAACGG | 0.25 kcal/mol
54 | TAAGACACGTGGATGT | 0.04 kcal/mol
55 | CAGGACACGTGGGCGG | -0.1 kcal/mol
56 | GGTTTCACGTGGGTTG | 0.28 kcal/mol
57 | GTTAACACGTGGGAGG | -0.15 kcal/mol
58 | TCTTGCACGTGGTTTA | -0.01 kcal/mol
59 | GCAAGCACGTGGAGGG | -0.11 kcal/mol
60 | TAGAGCACGTGCGAGG | -0.2 kcal/mol
61 | GAGGGCACGTGTGGGT | -0.01 kcal/mol
62 | CTTAACACGTGTTGTA | -0.19 kcal/mol
63 | ATTGTCACGTGTTGAT | 0.08 kcal/mol
64 | TTTAACACGTGGGGAA | -0.22 kcal/mol
65 | AGGATCACGTGCGAGG | 0.32 kcal/mol
66 | AAGTGCACGTGGGCTA | -0.28 kcal/mol
67 | CATTGCACGTGTAAGT | 0.17 kcal/mol
68 | TGGATCACGTGCTAGG | 0.13 kcal/mol
69 | CTACGCACGTGTTGTG | -0.2 kcal/mol

Row | Sequence | relative binding free energy
70 | CGAGGCACGTGAGTTT | 0.17 kcal/mol
71 | TTTGGCACGTGTAGCG | 0.08 kcal/mol
72 | TATTTCACGTGACTTG | 0.42 kcal/mol
73 | GTGTGCACGTGTGTCT | 0.09 kcal/mol
74 | CGGGTCACGTGGTCGC | 0.06 kcal/mol
75 | TGGCCCACGTGGATGT | -0.05 kcal/mol
76 | AATGACACGTGTAGTT | -0.04 kcal/mol
77 | AAGGTCACGTGGTATG | 0.05 kcal/mol
78 | CGCGTCACGTGGTTGG | 0 kcal/mol
79 | CTTTACACGTGAGAGT | 0.53 kcal/mol
80 | GTTTGCACGTGGGGGG | -0.11 kcal/mol
81 | GGAGTCACGTGTCGAG | 0.06 kcal/mol
82 | GTTGACACGTGTGGGC | 0.17 kcal/mol
83 | GTCGTCACGTGTATTT | 0.14 kcal/mol
84 | AGTATCACGTGAAGGT | 0.24 kcal/mol
85 | ATTTGCACGTGGATTG | 0.06 kcal/mol
86 | GTATGCACGTGTCAGG | -0.05 kcal/mol
87 | AGAGGCACGTGGGGGC | -0.35 kcal/mol
88 | GGTGGCACGTGGTGCT | -0.12 kcal/mol
89 | TGTCTCACGTGGTGTA | 0.09 kcal/mol
90 | ATTTACACGTGGAAAG | 0.32 kcal/mol
91 | TGGATCACGTGTTCGG | 0.25 kcal/mol
92 | CTTGCCACGTGGTGGG | -0.08 kcal/mol

Row | Sequence | relative binding free energy
93 | GTGTTCACGTGAGAGC | 0.35 kcal/mol
94 | CTGGGCACGTGAGGGA | 0.16 kcal/mol
95 | AGCTTCACGTGGGGCG | 0.23 kcal/mol
96 | TTAAGCACGTGCTTGT | -0.16 kcal/mol
97 | ATTTACACGTGGCGTT | 0.11 kcal/mol
98 | TGAGGCACGTGTGGGC | -0.05 kcal/mol
99 | GGTGGCACGTGCCGGT | -0.17 kcal/mol
100 | CAGTGCACGTGGAAGG | 0.08 kcal/mol
101 | TGTAACACGTGGAGTA | -0.12 kcal/mol
102 | TTTAGCACGTGGTTCG | -0.16 kcal/mol
103 | AGGGCCACGTGTACGG | -0.11 kcal/mol
104 | TGCAGCACGTGATGTT | -0.03 kcal/mol
105 | CAGGGCACGTGGAGTT | 0 kcal/mol
106 | AAGGGCACGTGATACG | 0.06 kcal/mol
107 | GTGAGCACGTGGAATT | -0.07 kcal/mol
108 | GAGGGCACGTGCCGGG | -0.11 kcal/mol
109 | AGAGGCACGTGGCCGG | -0.25 kcal/mol
110 | TGTTTCACGTGTGTGA | 0.34 kcal/mol
111 | AACTTCACGTGGGGTC | 0.3 kcal/mol
112 | GCTTTCACGTGTTGTA | 0.27 kcal/mol
113 | TATTGCACGTGGAGCG | -0.06 kcal/mol
114 | GTGAGCACGTGCGTGG | -0.06 kcal/mol
115 | CATAGCACGTGTTTTG | -0.17 kcal/mol
